Test results taken from PubChem BioAssay AID1159614 (National Center for Advancing Translational Sciences (NCATS), 2016).
About 65 (0.1%) of roughly 45,000 compounds were called active. Calls follow the shape of the dose curve; as a rule, active = well fitted activation curve with a large enough effect; inconclusive = small, poorly fitted or top-dose-only effect; inactive = no such curve, though single readings can be large or run the other way. Some of the results follow.

Biological target: Galactocerebrosidase (Homo sapiens) (UniProt P54803)
Assay: A Novel Cell-Based Assay to Identify Small Molecules for B -Galactocerebrosidase; also: 0% is about no effect; nearly all actives have a fitted effect of over 65% in size
Conditions: 145M-Twi-hGALC-G270D cells, HMU-beta-Gal fluorescence, 48 h; series mostly up to 57.5 µM; activation: at the top concentration
Summary of the method: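 qHTS, 1536-well; 145M-Twi-hGALC-G270D cells (WT line also made) in DMEM/F12 + 10% FBS; compound incubation on live cells; HMU-β-gal 0.1 mM final, pH 5.2, NaTC; carbonate stop; fluorescence increase = enhanced residual activity.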

UniProt P54803, sequence (P54803 whole entry, looked up): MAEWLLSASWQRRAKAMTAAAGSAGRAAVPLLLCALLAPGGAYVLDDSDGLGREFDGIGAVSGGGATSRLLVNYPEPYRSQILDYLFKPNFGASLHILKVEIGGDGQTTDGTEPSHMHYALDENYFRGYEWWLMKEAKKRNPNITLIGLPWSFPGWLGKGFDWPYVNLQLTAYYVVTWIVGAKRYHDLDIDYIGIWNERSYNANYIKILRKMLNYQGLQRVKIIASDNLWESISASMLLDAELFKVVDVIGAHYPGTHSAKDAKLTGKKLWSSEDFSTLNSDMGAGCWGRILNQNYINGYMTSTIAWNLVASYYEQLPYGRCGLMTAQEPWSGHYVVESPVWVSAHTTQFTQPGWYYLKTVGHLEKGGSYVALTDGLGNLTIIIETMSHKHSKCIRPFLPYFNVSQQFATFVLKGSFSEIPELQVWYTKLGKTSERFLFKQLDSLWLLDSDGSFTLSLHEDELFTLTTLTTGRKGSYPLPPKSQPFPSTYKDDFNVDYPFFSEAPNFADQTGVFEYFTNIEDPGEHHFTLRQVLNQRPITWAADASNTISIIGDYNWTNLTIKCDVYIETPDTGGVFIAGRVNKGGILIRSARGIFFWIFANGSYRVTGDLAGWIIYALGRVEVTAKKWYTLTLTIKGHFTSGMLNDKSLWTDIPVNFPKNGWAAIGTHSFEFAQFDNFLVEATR

activation, inactive:
COCCCNC(=O)c1cc2cc(S(=O)(=O)N3CCCCC3)ccc2n1C -1.87%
CCC(C)(C)NC(=O)C1CCN(S(=O)(=O)c2ccc3c(c2)CCCN3C(C)=O)CC1 -18.3%
Cc1cc(C)c(NC(=O)CSc2ncc3c(n2)-c2cc(Cl)ccc2N(C)S3(=O)=O)c(C)c1 -13.1%
C=Cc1ccc(Cn2c(C(=O)O)c(CNCc3ccc(F)cc3)c3ccc(C)cc32)cc1 -2.23%
Cc1cccc(C(=O)Nc2ccc(S(=O)(=O)N3CCC(c4nc5ccccc5s4)CC3)cc2)c1 -2.87%
COc1ccc(NC(=O)C2=CC(c3ccco3)=NS(=O)(=O)N2C)cc1 -14.1%
Cc1ccccc1S(=O)(=O)Cc1ccc(C(=O)N2CCN(c3cccc(Cl)c3)CC2)o1 -29.7%
Cc1cc(SCC(=O)NCc2ccc(Cl)cc2)nc(=O)[nH]1 5.89%
CCCCCn1c(=O)[nH]c2cc(C(=O)Nc3ccc(F)c(F)c3)ccc2c1=O -16.4%
N#Cc1ccc(-c2cccs2)nc1SCC(=O)Nc1cccc(C(F)(F)F)c1 -10.3%
Cc1cccc(NC(=O)c2cc(S(=O)(=O)NCCc3ccccc3)ccc2F)c1C -6.45%
COc1ccccc1C1c2c(-c3ccc(Cl)cc3)n[nH]c2C(=O)N1c1ccc(C)cc1 (configuration not stated) -6.4%
Cc1ccccc1C(=O)Nc1cccc(OCc2cc(=O)n3c(C)csc3n2)c1 -9.76%
CCN1CCN(Cc2c(O)ccc3c(C)c(-c4ccc(OC)cc4)c(=O)oc23)CC1 -6.29%
Cc1ccc(S(=O)(=O)N2CCC(C(=O)NCc3ccccc3Cl)CC2)cc1 -9.06%
CCN(CC)CCOC(=O)c1ccc(NC(=O)c2cc3c(=O)n(CC)c4ccccc4c3s2)cc1 -0.691%
COc1ccccc1N1CCN(c2ncnc3c2nnn3C)CC1 -3.02%
Cc1ccc(C)c(NC(=O)CN2CCSc3ccc(S(=O)(=O)N4CCCC4)cc32)c1 -22.5%
CCOCCn1ccc2c(OCC(=O)Nc3ccc(C(N)=O)cc3)cccc2c1=O -19.6%
CC(C)c1ccc(CN(C(=O)c2cc3ccccc3oc2=O)C2CCS(=O)(=O)C2)cc1 (configuration not stated) -30.9%
COc1ccc(NC(=O)C2CCN(S(=O)(=O)c3cccc(-c4noc(C)n4)c3)CC2)cc1OC -21.3%
CCOC(=O)c1oc2ccc(S(=O)(=O)n3nc(-c4ccc(C)cc4)cc3N)cc2c1C -40.3%
Cc1cc(S(=O)(=O)N2CCN(Cc3noc(CCC(=O)N4CCCCC4)n3)CC2)ccc1F -33.8%
CN(C)c1ccc(CNC(=O)C2CCN(c3nc4ccccc4[nH]3)CC2)cc1 -0.404%
CCCc1nn2c(=O)cc(COC(=O)c3ccc(NC(=O)COc4ccc(F)cc4)cc3)nc2s1 -9.08%
COC(=O)c1cc2occc2n1Cc1nc(-c2ccccc2)oc1C -10.1%
COc1cccc2sc(N(Cc3cccnc3)C(=O)c3ccc4c(c3)OCCO4)nc12 -21.3%
COc1ccc(C2NC(=O)N(C)C3=C2C(=O)N(c2ccc(Br)cc2)C3)cc1 (configuration not stated) -14%
CCOC(=O)CC(NC(=O)CCc1c(C)nc2c(-c3ccccc3)c(C)nn2c1C)c1ccc(OC(C)C)cc1 (configuration not stated) -27.8%
COc1cccc(CNC(=O)c2cnc3sc(N4CCCC4)nn3c2=O)c1OC -4.99%
CCOC(=O)COc1ccc(C2C(C(=O)OC)=C(C)NC3=C2C(=O)c2ccccc23)cc1Cl (configuration not stated) 2.88%
COc1ccc(Cn2c(CCC(=O)NCc3ccc(Cl)cc3)nc3cccnc32)cc1 -12.5%
CSc1ccc(CCNC(=O)NCc2noc3ccccc23)cc1 -14.8%
Cc1cccc(NC(=O)Cn2cc(C(=O)C3CCCCC3)c3ccccc32)c1 -14.4%
COC(=O)c1cc(Cl)ccc1OC -20.5%
CCOC(=O)c1cc(S(=O)(=O)Nc2cc(OC)ccc2OC)[nH]n1 3.09%
Cc1ccc(C(=O)NCC(c2ccc3c(c2)OCO3)N2CCOCC2)cc1C (configuration not stated) -8.39%
COc1ccc(Cl)cc1NC(=O)c1cc2c(=O)n3ccccc3nc2s1 -8.81%
O=C(CSc1cn(CC(=O)N2CCCC2)c2ccccc12)Nc1ccc(Cl)cc1 -11.1%
COc1ccc(CNc2nc(-c3ccco3)nn2S(=O)(=O)c2ccc(Cl)cc2)cc1OC -6.39%
Cc1cc2c(cc1S(N)(=O)=O)S(=O)(=O)CCC2 -8.77%
Cc1cc(C)n(-c2nnc(Nc3ccc(C)c(C)c3)c3ccccc23)n1 -22.8%
C[C@H]1O[C@H](O[C@H]2[C@H](O)[C@@H](O)[C@@H](O[C@H]3[C@H](O)[C@@H](O)[C@H](O)O[C@@H]3CO)O[C@@H]2CO)[C@H](O)[C@@H](O)[C@@H]1N[C@H]1C=C(CO)[C@@H](O)[C@H](O)[C@H]1O -11%
CN(c1ccccc1)S(=O)(=O)c1ccc(NC(=O)c2nc(S(C)(=O)=O)ncc2Cl)cc1 -16%
COc1ccc(-c2c(C#N)c(SCC(=O)Nc3ccccc3C)nc(C)c2C(=O)Nc2ccc(Cl)cc2)cc1 -13.1%
COC(=O)c1c(NC(=O)CCCOc2cccc(C)c2)sc2c1CCC2 -12.4%
Cc1cc(O)c(C(c2cccc(F)c2)N2CCN(c3ccccc3)CC2)c(=O)n1Cc1ccco1 (configuration not stated) -21.5%
COc1ccc(NC(=O)c2sc3nc4c(cc3c2N)CN(Cc2ccccc2)CC4)c(OC)c1 -21.8%
Cc1ccc(C)c(CN2C(=O)c3ccccc3S(=O)(=O)c3ccc(C(=O)OCC4CCCO4)cc32)c1 (configuration not stated) -6.58%
COc1ccc(NC(=O)Cn2c(SCc3ccc(C)cc3)nc3cccnc32)cc1OC -14.3%
O=C1Nc2ccccc2Oc2cc(Oc3ccccc3)ccc21 -9.35%
COc1cc(NC(=O)c2cc3nc(-c4ccccc4)cc(-c4ccccc4)n3n2)c(OC)cc1Cl -16.3%
CC1CCN(c2nc3ccc(C(=O)NCc4ccc(Cl)cc4)cc3s2)CC1 -8.43%
COC(=O)c1ccc(OC)c(Cn2c(=O)n(-c3ccc(C)cc3)c(=O)c3c2cnn3C)c1 -15.9%
COc1ccc(C(=O)Nc2ccc3nc(SCC(=O)N4CCOCC4)sc3c2)cc1 -3.73%
COc1ccc(C2CC(=O)N(CC(=O)Nc3ccc(C(F)(F)F)cc3)c3ccccc3S2)cc1 (configuration not stated) -15.9%
CCc1ccc(OCC(=O)NCC(c2ccc(OC)cc2)N2CCOCC2)cc1 (configuration not stated) -1.4%
CCSc1nc(=O)c2c(n1C)NC(=O)CC2c1ccc(O)cc1OC (configuration not stated) -11.2%
Cc1cccc(C)c1NC(=O)CN(C)S(=O)(=O)c1ccc2c(c1)n(C)c(=O)c(=O)n2C -8.47%
Cc1ccc2c(CNC3CCC(C)CC3)c(C(=O)O)n(Cc3cccc(F)c3)c2c1 (configuration not stated) 7.48%
CCN(CC)CCNC(=O)c1ccc2c(c1)N(Cc1ccccc1)C(=O)c1ccccc1S2=O (configuration not stated) 5.68%
CC(=O)c1cccc(NC(=O)Cn2c(C)c3cnn(-c4ccccc4)c(=O)c3c2C)c1 -6.05%
COc1ccc(-n2c(=O)c3sc4ccccc4c3n(Cc3ccccc3)c2=O)cc1 -11.7%
COc1cccc(CNC(=O)c2c3c(nc4ccccc24)C(=O)N(C2CCCCC2)C3)c1 -13.5%
Cn1cc(C(=O)NCc2ccccc2)c(=O)c2cc(S(=O)(=O)N3CCCCCC3)ccc21 -3.62%
O=C(Cn1c(=O)nc(-c2ccccc2)c2cc(Cl)ccc21)NCCCc1ccccc1 -13.6%
CCc1nn(CC(=O)NC2CC2)c(=O)c2cc3ccccc3n12 -17.7%
Cc1ccccc1Oc1nc2c(c(=O)n(C)c(=O)n2C)n1Cc1ccc(Br)cc1 -13.1%
Cc1ccc(C)c(CSc2nc3ccncc3n2Cc2nc(-c3ccccc3Cl)oc2C)c1 -4.74%
COC(=O)c1ccc(C(=O)OC)c(NC(=O)c2c(-c3ccccc3)c(-c3ccccc3)nn(C)c2=O)c1 5.66%
Cc1ccc2c(c1)nc(SCC(O)c1ccc(Br)cc1)n2C (configuration not stated) -8.02%
Cn1c(=O)c2sccc2n2c(CCC(=O)NCc3ccccc3)nnc12 -8.34%
COc1ccc(N2CCN(Cc3nc4c(c(=O)[nH]c(=O)n4C)n3Cc3ccccc3)CC2)cc1 5.15%
CCC1CCCCN1C(=O)Cn1c(=O)n(CC2CCC(C(=O)NC)CC2)c(=O)c2sccc21 (configuration not stated) -10.7%
CCCCc1ccc(Nc2ncnc3c2cnn3-c2ccc(C)cc2)cc1 3.09%
Cc1ccc(S(=O)Cc2nc(-c3ccc(C(=O)NC(C)c4ccccc4)cc3)oc2C)cc1 (configuration not stated) -12.1%
COc1cc(OC)c(NC(=O)c2cc(S(=O)(=O)N3CCCC3)cn2C)cc1Cl -2.09%
CC(NC(=O)CSc1n[nH]c(-c2ccccc2)n1)c1nc2ccccc2n1C (configuration not stated) -9.07%
O=C(Nc1ccc(OC(F)(F)F)cc1)NC1COc2ccccc2C1 (configuration not stated) -5.21%
O=C(CCCn1c(=O)c2ccccc2n(CC(=O)Nc2ccc(F)cc2F)c1=O)NCc1ccccc1Cl -2.52%
O=C(NCc1ccc(F)cc1)c1cc2c(s1)-c1ccccc1SC2 -27%
CCCCOC(=O)c1ccc(NC(=O)/C(C#N)=C/c2ccc(-c3ccccc3)o2)cc1 -13.2%
COc1cc2c(=O)n(CCC(=O)NCC3CCCO3)c(=O)n(CC(=O)Nc3c(C)cccc3C)c2cc1OC (configuration not stated) -26.3%
COc1cccc(CCNc2ncnc3c2nnn3C)c1 -20.9%
CN(C)c1ccc(CNC(=O)C(Cc2ccccc2)NS(=O)(=O)c2ccc3c(c2)oc(=O)n3C)cc1 (configuration not stated) -12.4%
Cc1ccc(N(CC(=O)Nc2ccc(Br)c(C)c2)S(=O)(=O)c2cccs2)cc1 -11.8%
CCOc1ccc(CCNC(=O)C2Cc3ccccc3N2C(=O)CC)cc1OCC (configuration not stated) -17.4%
Cc1ccc(-c2cc(C(=O)N3CCN(S(=O)(=O)c4ccc(Br)s4)CC3)[nH]n2)c(C)c1 -17.3%
CC(=O)c1ccc(NC(=O)CSc2ccc3nc(-c4ccccc4)cn3n2)cc1 -14.6%
Cc1ccc(C)c(NC(=O)Cn2c(=O)n(Cc3cccs3)c(=O)c3cccnc32)c1 -22.8%
COc1ccc(-c2cn3nc(N4CCC(C(=O)Nc5cc(Cl)ccc5OC)CC4)sc3n2)cc1 -8.14%
CC(C)(C)OC(=O)N1CCC(c2c(C(=O)N3CCN(c4ncccn4)CC3)cnn2-c2ccc(F)cc2F)CC1 8.77%
